The target in experiment [1] is T1, endogenous TEKT3 (mouse (endogenous in mouse testis and sperm)) (UniProt Q6X6Z7).
T1 sequence: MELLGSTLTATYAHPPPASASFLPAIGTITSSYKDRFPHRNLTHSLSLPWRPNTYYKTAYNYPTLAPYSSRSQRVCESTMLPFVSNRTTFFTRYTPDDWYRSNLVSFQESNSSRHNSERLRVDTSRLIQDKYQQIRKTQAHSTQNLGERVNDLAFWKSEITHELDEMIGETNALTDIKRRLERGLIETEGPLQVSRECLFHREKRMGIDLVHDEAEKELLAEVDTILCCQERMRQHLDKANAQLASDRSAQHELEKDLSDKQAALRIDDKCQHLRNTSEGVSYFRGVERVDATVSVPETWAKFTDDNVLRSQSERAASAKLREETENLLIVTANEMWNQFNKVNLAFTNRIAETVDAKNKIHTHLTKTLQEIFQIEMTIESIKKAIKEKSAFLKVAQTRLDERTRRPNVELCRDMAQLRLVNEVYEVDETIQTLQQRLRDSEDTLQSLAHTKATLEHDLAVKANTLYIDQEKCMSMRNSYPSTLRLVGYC
Briefly: co-IP; endogenous proteins in adult mouse testis lysates (Pierce IP Lysis Buffer), WT and Tektip1-/- mice; precipitated with rabbit anti-TEKT1, -TEKT2, -TEKT3 or -TEKT4; rabbit IgG as negative control; Western blot.

Sequences of proteins named here, by UniProt entry; tags and fusion partners are left off.
UniProt Q9DAJ2: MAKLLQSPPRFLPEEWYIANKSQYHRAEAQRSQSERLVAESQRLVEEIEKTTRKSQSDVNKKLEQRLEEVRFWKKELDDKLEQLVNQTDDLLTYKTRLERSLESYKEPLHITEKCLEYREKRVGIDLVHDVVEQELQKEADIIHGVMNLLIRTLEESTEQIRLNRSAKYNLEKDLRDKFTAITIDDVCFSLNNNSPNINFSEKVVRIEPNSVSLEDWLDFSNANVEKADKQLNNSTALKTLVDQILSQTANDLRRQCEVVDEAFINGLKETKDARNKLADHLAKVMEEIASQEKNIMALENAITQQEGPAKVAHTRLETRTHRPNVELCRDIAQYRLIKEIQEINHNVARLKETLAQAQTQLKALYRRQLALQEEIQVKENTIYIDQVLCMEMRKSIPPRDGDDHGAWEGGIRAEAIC

For experiment [2], the target named is T2, endogenous TEKT4 (mouse (endogenous in mouse testis and sperm)) (UniProt Q149S1).
T2 sequence: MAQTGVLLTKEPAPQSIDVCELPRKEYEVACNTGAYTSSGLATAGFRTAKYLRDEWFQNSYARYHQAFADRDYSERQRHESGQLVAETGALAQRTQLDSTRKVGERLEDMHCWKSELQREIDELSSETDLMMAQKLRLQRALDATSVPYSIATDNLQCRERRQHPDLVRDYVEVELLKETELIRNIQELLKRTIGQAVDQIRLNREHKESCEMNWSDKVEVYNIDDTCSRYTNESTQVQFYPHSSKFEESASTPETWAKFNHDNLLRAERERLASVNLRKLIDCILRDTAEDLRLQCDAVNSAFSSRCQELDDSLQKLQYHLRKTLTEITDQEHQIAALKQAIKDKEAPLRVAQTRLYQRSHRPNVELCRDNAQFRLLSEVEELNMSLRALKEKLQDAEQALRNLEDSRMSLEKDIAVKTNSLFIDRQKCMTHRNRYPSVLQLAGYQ
The description is as above.

Among the data in publication PMC10917850 are binding values, retold here.

Results are given in words; binding and its absence hold for the method and conditions named. In cells and extracts the contact can be indirect. Some results given as binding are weak or reduced against the parent protein; the word gives no strength.

For “endogenous TEKT1 (from UniProt Q9DAJ2 1-418)”, the binding result in experiment [1] and in experiment [2] was “binds” throughout.
